Reference: the supplement of paper PMC12217912
The list shows a part of the results. Sequences were assembled here from the parent chain. Values near 0.05 are background.

B1: TEV protease; numbered along this chain (parent)
chain: MGESLFKGPRDYNPISSSICHLTNESDGHTTSLYGIGFGPFIITNKHLFRRNNGTLVVQSLHGVFKVKDTTTLQQHLVDGRDMIIIRMPKDFPPFPQKLKFREPQREERICLVTTNFQTKSMSSMVSDTSCTFPSGDGIFWKHWIQTKDGQCGSPLVSTRDGFIVGIHSASNFTNTNNYFTSVPKNFMELLTNQEAQQWVSGWRLNADSVLWGGHKVFMVKPEEPFQPVKEATQL

Variants of: B1
Experiment: raw area under fraction-flipped curve 0-4 h after induction (AUC4h, not background-subtracted), DNA-recorder readout of cleavage of the substrate (dimensionless); higher = more cleavage of the substrate by the protease variant
Conditions: temperature: 34 °C; time window: 0-4 h after rhamnose induction
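Also: Bxb1 expression induced with 0.2% (w/v) L-rhamnose at OD600 near 0.5, cultures sampled hourly, flipped fraction per protease–substrate barcode pair counted by paired-end Illumina sequencing.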

Variant | area with substrate ENLDFQS | area with substrate ENLIFQS | area with substrate ENLMFQS | area with substrate ENLNFQS | area with substrate ENLPFQS | area with substrate ENLQFQS | area with substrate ENLSFQS | area with substrate ENLWFQS | area with substrate ENLCFQS | area with substrate ENLEFQS
T181H | 0.0518 | 0.0459 | 0.0647 | 0.0548 | 0.0666 | 0.047 | 0.0454 | 0.0572 | – | –
T129D | – | – | 0.0723 | 0.0613 | – | – | – | – | 0.063 | 0.0534
S182V | – | – | – | – | 0.058 | – | – | – | 0.0673 | 0.063
K185V | 0.0705 | 0.11 | – | – | 0.0506 | – | 0.0664 | – | 0.0717 | –
H29G | – | 0.0736 | 0.0717 | – | 0.0567 | – | – | – | 0.0671 | 0.0548
G202W | 0.0609 | – | – | 0.0606 | 0.0709 | 0.0633 | 0.0547 | – | – | 0.0551
H215K | 0.0602 | – | 0.0482 | 0.0715 | 0.0663 | – | 0.0731 | 0.0619 | 0.0655 | –
P93C | – | – | – | 0.0768 | – | 0.0581 | 0.0786 | 0.0599 | 0.0927 | –
P93D | – | – | – | 0.059 | 0.0588 | 0.047 | – | 0.0822 | 0.0731 | –
S124Y | 0.0483 | – | – | 0.0647 | – | – | 0.0844 | – | – | 0.0698
L22M | 0.0674 | – | – | 0.0681 | 0.0436 | 0.0683 | 0.0734 | 0.109 | 0.0893 | 0.0655
L99V | 0.0655 | 0.0752 | – | 0.0699 | – | – | 0.068 | 0.0728 | 0.0596 | –
V57I | 0.0634 | 0.0962 | – | 0.0605 | – | – | 0.0576 | – | – | –
G150Y | 0.0623 | 0.0514 | 0.0648 | 0.0625 | 0.0595 | 0.0562 | 0.0283 | 0.0552 | 0.0477 | –
N175Q | 0.0435 | 0.0811 | – | 0.0599 | – | 0.0904 | 0.0818 | – | – | 0.0662
S201Q | 0.0566 | – | – | – | – | 0.0835 | 0.0753 | – | – | –
S201N | 0.061 | – | 0.0926 | 0.0633 | 0.0574 | 0.0937 | 0.0623 | 0.0708 | 0.0607 | –
E195L | 0.0505 | 0.0817 | – | – | – | – | – | 0.0485 | 0.0881 | 0.0614
S209R | 0.0686 | – | 0.0923 | 0.0584 | – | 0.0851 | 0.0571 | 0.0637 | – | 0.0551
F218I | 0.0695 | 0.0686 | – | – | 0.0504 | – | 0.0466 | 0.0372 | 0.044 | 0.0308

Variant | area with substrate ENLDFQS | area with substrate ENLIFQS | area with substrate ENLMFQS | area with substrate ENLNFQS | area with substrate ENLPFQS | area with substrate ENLQFQS | area with substrate ENLSFQS | area with substrate ENLWFQS | area with substrate ENLCFQS | area with substrate ENLEFQS
G153T | 0.0537 | – | – | 0.0492 | – | – | – | 0.0478 | 0.0483 | –
G153L | 0.0486 | – | – | 0.033 | – | – | – | – | 0.0491 | 0.0542
G35A | 0.0531 | 0.0569 | – | – | 0.0615 | – | 0.0733 | – | – | –
P228Y | 0.0374 | – | – | – | – | 0.075 | 0.051 | – | 0.0795 | –
R50W | 0.0695 | 0.101 | – | 0.0293 | 0.0672 | – | 0.085 | 0.0917 | 0.103 | 0.0673
E108G | 0.0707 | – | – | – | – | 0.112 | – | – | – | –
G8L | 0.0717 | – | – | – | 0.0723 | 0.0712 | – | – | 0.0764 | –
L156Y | – | – | – | 0.0653 | 0.0429 | – | – | 0.0468 | 0.0593 | –
Q75M | 0.0715 | – | – | 0.0624 | – | 0.0711 | – | 0.0546 | – | –
F92V | 0.0543 | – | 0.0762 | 0.0807 | 0.0711 | – | 0.0694 | – | 0.0762 | –
T233P | – | – | – | – | 0.0618 | – | – | 0.0731 | 0.0807 | –
T176Q | – | – | – | 0.0461 | – | – | 0.0274 | 0.069 | 0.0623 | –
V78E | 0.064 | 0.0566 | – | 0.0766 | 0.0554 | 0.057 | 0.0595 | 0.0493 | 0.0537 | 0.0484
G162N | 0.0718 | – | 0.0717 | 0.0626 | – | – | 0.057 | – | 0.0701 | –
E189L | 0.05 | 0.0766 | – | 0.0549 | 0.0584 | 0.0714 | 0.0511 | – | 0.0673 | 0.0549
A196V | – | 0.081 | – | 0.0627 | – | 0.0545 | – | 0.0645 | 0.0395 | –
L235T | 0.0784 | – | – | 0.0692 | 0.0144 | 0.0631 | 0.0626 | 0.0655 | 0.082 | 0.0747
L235P | 0.0646 | – | – | 0.0713 | – | – | – | – | 0.0534 | –
F180S | – | 0.0686 | 0.081 | – | 0.0492 | – | – | – | 0.0628 | 0.0589

Same assay, conditions: temperature: 34 °C; time window: 0-4 h after rhamnose induction

Variant | area with substrate ENLVFQS | area with substrate ENLKFQS | area with substrate ENLFFQS | area with substrate ENLLFQS | area with substrate ENLRFQS | area with substrate ENLGFQS | area with substrate ENLHFQS | area with substrate ENLTFQS
T129D | 0.0926 | – | – | – | – | – | – | –
S182V | – | 0.08 | – | – | – | – | – | –
K185V | – | 0.0833 | 0.0823 | 0.0762 | 0.0614 | – | – | –
G202W | 0.0622 | – | – | 0.0636 | 0.0582 | – | – | –
H215K | 0.0541 | 0.065 | 0.0645 | 0.068 | – | 0.0681 | 0.0682 | –
P93C | – | – | 0.0854 | – | – | – | 0.0687 | –
P93D | 0.0685 | 0.0916 | – | 0.0889 | – | – | 0.0665 | –
S124Y | 0.0885 | 0.0697 | 0.0709 | 0.0747 | – | – | 0.0585 | –
L22M | – | 0.0895 | 0.0771 | 0.0717 | 0.0716 | 0.0804 | – | –
L99V | 0.0618 | 0.0708 | 0.0878 | 0.0867 | – | – | 0.0738 | –
V57I | 0.0638 | 0.0814 | 0.117 | – | 0.0674 | – | – | 0.0775
G150Y | – | 0.0594 | 0.055 | 0.088 | – | – | – | –
N175Q | – | 0.105 | 0.139 | – | 0.0583 | 0.0621 | 0.0623 | –
S201Q | – | – | 0.0839 | – | – | – | 0.0678 | –
S201N | 0.0783 | 0.0631 | 0.0745 | 0.0557 | 0.0806 | – | 0.0615 | 0.0754
E195L | – | 0.043 | 0.0783 | – | – | – | – | –
S209R | 0.0725 | – | 0.054 | – | – | 0.0821 | 0.0516 | –
F218I | – | 0.0685 | 0.0738 | – | – | – | – | –

Variant | area with substrate ENLVFQS | area with substrate ENLKFQS | area with substrate ENLFFQS | area with substrate ENLLFQS | area with substrate ENLRFQS | area with substrate ENLGFQS | area with substrate ENLHFQS | area with substrate ENLTFQS
G153T | 0.053 | – | 0.0469 | 0.0597 | 0.0381 | – | – | –
G153L | – | 0.045 | 0.0558 | 0.0563 | – | 0.055 | 0.0294 | –
P228Y | – | – | 0.0853 | – | 0.077 | – | – | –
R50W | – | – | 0.114 | 0.0731 | – | – | – | –
E108G | – | – | – | – | – | – | – | 0.0671
G8L | – | – | 0.0783 | – | 0.0721 | 0.081 | – | –
L156Y | – | 0.0658 | 0.0627 | – | – | 0.0403 | – | –
Q75M | 0.0977 | 0.0834 | – | 0.0698 | 0.053 | – | – | –
F92V | – | – | 0.1 | – | – | – | – | 0.0593
T233P | – | – | – | – | 0.0616 | – | 0.0451 | –
T176Q | – | – | – | 0.0566 | – | – | – | –
V78E | – | 0.0591 | 0.0662 | 0.0333 | 0.0618 | – | 0.0494 | –
E189L | 0.0722 | 0.0731 | 0.0845 | 0.0631 | 0.0647 | – | 0.0705 | –
A196V | 0.112 | – | 0.0711 | 0.0869 | – | – | 0.0616 | –
L235T | 0.0931 | 0.0643 | 0.106 | 0.0511 | 0.0875 | – | 0.0544 | –
L235P | – | 0.0754 | 0.0931 | – | 0.0992 | – | – | 0.0781
F180S | 0.0573 | – | 0.0841 | – | – | 0.0591 | – | –
